Hit rate of the full screen: of about 410,000 compounds, about 6,400 (1.6%) were called active. The shares of active, inactive and inconclusive entries below differ from those in the screen. Calls follow the shape of the dose curve; as a rule, active = well fitted inhibition curve with a large enough effect; inconclusive = small, poorly fitted or top-dose-only effect; inactive = no such curve, though single readings can be large or run the other way. No potency is given beside an inconclusive call; the fits are too rough.
What follows are compounds tested against Glucagon-like peptide 1 receptor (Homo sapiens) (UniProt P43220) (assay: qHTS of GLP-1 Receptor Inverse Agonists (Inhibition Mode)). Settings: HEK293 GLP-1R CRE-luciferase, luminescence, 24 h, GLP-1R form is constitutively active; series mostly up to 38.3 µM.
Summary of the method: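 Using stably transfected HEK293 (constitutively active GLP-1R, cAMP-luciferase reporter), compounds were incubated 24 hr and luciferase measured by luminescence.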
Also: nearly all actives have a fitted effect of over 55% in size.
Potency is read from the fitted curve at half-maximal effect; tags tell the direction and shape of the fitted curve.

UniProt P43220, sequence (P43220 whole entry, looked up): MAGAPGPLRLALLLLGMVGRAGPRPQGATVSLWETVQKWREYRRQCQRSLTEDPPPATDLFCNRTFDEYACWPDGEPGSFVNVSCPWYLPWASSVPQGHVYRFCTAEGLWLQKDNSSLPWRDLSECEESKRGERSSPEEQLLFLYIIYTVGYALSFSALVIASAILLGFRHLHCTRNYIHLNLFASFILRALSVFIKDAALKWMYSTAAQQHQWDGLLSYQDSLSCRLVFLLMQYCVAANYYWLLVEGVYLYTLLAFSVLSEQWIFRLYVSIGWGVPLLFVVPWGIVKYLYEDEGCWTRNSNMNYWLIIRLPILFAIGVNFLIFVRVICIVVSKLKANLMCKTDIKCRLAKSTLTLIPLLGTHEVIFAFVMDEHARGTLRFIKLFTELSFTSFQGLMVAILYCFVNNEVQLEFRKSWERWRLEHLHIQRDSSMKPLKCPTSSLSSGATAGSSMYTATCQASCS

Row | SMILES | Potency
1 | Cn1cccc1/C=N/N1CCN(Cc2cccc3ccccc23)CC1 | inconclusive [inhibitor, partial curve, poor fit]
2 | Cc1cccc(OCC(=O)N2CCC(c3ccccc3)C2)c1 (stereo not drawn) | inactive
3 | C/C(=C1/SC(=S)N(CCC(=O)O)C1=O)c1ccc(O)cc1 | inactive
4 | Cc1cc(S(=O)(=O)N2CCC3(CC2)OCCN3S(=O)(=O)c2cccs2)ccc1F | inconclusive [inhibitor, partial curve, poor fit]
5 | NC(=O)c1cccc(-c2coc3c(C(=O)NCCc4ccccc4)cccc23)c1 | inconclusive [inhibitor, partial curve, poor fit]
6 | COc1ccc(N(S(=O)(=O)c2ccccc2)S(=O)(=O)c2ccccc2)c(N)c1 | inconclusive [inhibitor, partial curve, poor fit]
7 | COc1ccc2oc(C(=O)OCC(=O)N(C)CC(=O)Nc3ccc(C)cc3)c(C)c2c1 | inactive
8 | CC1CC(C)CN(C(=O)c2cccc(S(=O)(=O)Nc3cc(C(F)(F)F)ccc3Cl)c2)C1 (stereo not drawn) | inconclusive [inhibitor, partial curve, poor fit]
9 | C/C(=N\NC(=O)CSCc1ccccc1Cl)c1cccc(NC(=O)c2ccccc2)c1 | inconclusive [inhibitor, full curve, poor fit]
10 | Cc1ccc(NC(=O)Nc2ccon2)cc1 | inactive
11 | O=C(C[n+]1ccccc1)NNc1ccccc1 | inconclusive [inhibitor, full curve, poor fit]
12 | Cc1cccc2sc(NNC(=O)c3ccc4c(c3)OCCO4)nc12 | inconclusive [inhibitor, partial curve, poor fit]
13 | O=C(Cn1nnc2ccccc21)C1CC1 | inactive
14 | COc1cccc(-c2cnc3c(NC=O)cc(-c4cccc(NC(C)=O)c4)cn23)c1 | inconclusive [inhibitor, single point]
15 | COc1ccc(-c2ocnc2C(=O)N2CCN(C(c3ccccc3)c3ccccc3)CC2)cc1 | inconclusive [inhibitor, partial curve, poor fit]
16 | COc1ccc(-c2[nH]ncc2/C=N/NC(=O)c2cc(Br)ccc2O)c(OC)c1 | inconclusive [inhibitor, partial curve, poor fit]
17 | CCOc1ccc(-c2nn(CC(=O)NC3CCCCC3)c3c2cnc2ccc(C)cc23)cc1 | inactive
18 | c1ccc(Sc2nc(N3CCCCC3)nc(N3CCCCC3)n2)nc1 | inconclusive [inhibitor, partial curve, poor fit]
19 | Cc1ccc(Cl)cc1N1CCN(C(=O)Cn2ccc3ccccc3c2=O)CC1 | inconclusive [inhibitor, partial curve, poor fit]
20 | COc1cccc(CN(C)S(=O)(=O)c2ccccc2Br)c1 | inconclusive [inhibitor, single point]
21 | COc1ccc(CC(=O)Nc2c(C(=O)N3CCN(c4ncccn4)CC3)oc3ccccc23)cc1 | inactive

Row | SMILES | Potency
22 | Cc1cc(Cl)ccc1NC(=S)NCCc1ccc(S(N)(=O)=O)cc1 | inconclusive [inhibitor, single point]
23 | S=C(S)OC1CC2CC1C1CCCC21 (stereo not drawn) | inactive
24 | Cc1ccc(C2=NS(=O)(=O)N(C)C(C(=O)Nc3cc(C)n(CC(=O)N4CCC(C)CC4)n3)=C2)cc1 | inconclusive [inhibitor, single point]
25 | CCN(CC(=O)NCc1cccs1)S(=O)(=O)c1ccc(C(C)C)cc1 | inconclusive [inhibitor, partial curve, poor fit]
26 | Cc1ccc(C(C(=O)NCc2ccco2)N(C(=O)Cn2nnc3ccccc32)c2ccccc2)o1 (stereo not drawn) | inconclusive [inhibitor, partial curve]
27 | O=C(NCc1ccccc1F)C1CCC(=O)N(Cc2ccc(Cl)cc2)C1 (stereo not drawn) | inconclusive [inhibitor, single point]
28 | Cc1ccc(NC(=O)c2ccc(-c3nn(C)c(=O)c4ccccc34)cc2)cc1 | inactive
29 | COc1ccc(OC)c(CCNC(=O)c2ccc3c(c2)N(Cc2ccc(C)cc2)CCS3)c1 | inconclusive [inhibitor, partial curve, poor fit]
30 | COc1ccc(F)cc1S(=O)(=O)NCCc1c(C)[nH]c2c(Cl)cccc12 | inconclusive [inhibitor, single point]
31 | OC(CNCCCN1CCCCC1)COc1ccccc1 (stereo not drawn) | inconclusive [inhibitor, partial curve]
32 | Cc1ccc(-c2nn(-c3ccccc3)cc2/C=C/C(=O)Nc2cccc(S(N)(=O)=O)c2)cc1 | active: 5.01 µM
33 | COC(C[C@H]1O[C@@H]1C(=O)COCc1ccccc1)OC | inactive
34 | COc1cc(/C=N/NC(=O)c2cncc(Br)c2)cc([N+](=O)[O-])c1O | inconclusive [inhibitor, partial curve, poor fit]
35 | FC(F)(F)c1ccccc1Cc1c(-c2cccc(Br)c2)nc2c3ccccc3ccn12 | inconclusive [inhibitor, single point]
36 | COc1cccc(C(=O)Nc2nc3ccccc3[nH]2)c1 | active: 7.94 µM
37 | CCNC(=O)c1ccc(CSc2nc3ccccc3s2)cc1 | inconclusive [inhibitor, single point]
38 | COc1ccc(-c2nc(C)c(CCNC(=O)C(=O)Nc3ccccc3F)s2)cc1 | inconclusive [inhibitor, full curve, poor fit]
39 | COc1ccc(C(CNC(=O)COc2cc(C)cc(C)c2)N2CCCCC2)cc1 (stereo not drawn) | inconclusive [inhibitor, single point]
40 | Cc1ccc(N2C(=O)N(CC(=O)Nc3ccc(C)cc3Cl)C(=O)C2C)cc1 (stereo not drawn) | inconclusive [inhibitor, single point]
41 | CCC1CN(C(=O)Nc2cccc(C)c2)c2cc(C)ccc2O1 (stereo not drawn) | inconclusive [inhibitor, partial curve, poor fit]
42 | COc1cccc(CNC(=O)COc2cccc3c2OC(C)(C)C3)c1 | inconclusive [inhibitor, partial curve, poor fit]

Row | SMILES | Potency
43 | C=CCN(c1ccccc1)S(=O)(=O)c1cccc(C(=O)NCC(c2ccccc2OC)N2CCCC2)c1 (stereo not drawn) | inconclusive [inhibitor, single point]
44 | CCOc1ccc(C=NNC(=O)c2ccc(-n3cnnn3)cc2)cc1 | inconclusive [inhibitor, partial curve, poor fit]
45 | CCOC(=O)Cc1nn(Cc2nc(-c3ccc(C)cc3)cs2)c(=O)c2ccccc12 | inconclusive [inhibitor, single point]
46 | CCCC1=[N+](CC(=O)c2ccccc2)CCn2c(C)ccc21 | inconclusive [inhibitor, single point]
47 | Cc1c(CCOC(=O)c2ccccc2)sc[n+]1CC(=O)c1ccc(Br)cc1 | inconclusive [inhibitor, single point]
48 | Cc1ccc2c(C)c(C(=O)N(Cc3ccc(F)cc3)C3CCS(=O)(=O)C3)oc2c1 (stereo not drawn) | inconclusive [inhibitor, partial curve]
49 | Fc1ccc(CN2CCCN(C(=S)Nc3ccc(F)cc3)CC2)cc1 | inconclusive [inhibitor, partial curve, poor fit]
50 | COC(=O)[C@@]1(Cc2ccc(OC)cc2)[C@H]2c3cc(C(=O)N4CCCC4)n(Cc4ccc(Cl)c(C(F)(F)F)c4)c3C[C@H]2CN1C(=O)c1ccccc1 | inconclusive [inhibitor, single point]
51 | COC(=O)c1cccc(C(=O)N2CCCC(Nc3ccc(C)c(C)c3)C2)c1 (stereo not drawn) | inconclusive [inhibitor, single point]
52 | COc1ccc(S(=O)(=O)c2c(O)c(C)cc(NS(=O)(=O)c3ccc(Cl)cc3)c2C(C)C)cc1 | inconclusive [inhibitor, single point]
53 | O=C1c2ccccc2NC2(CCCCC2)N1c1ccc(O)cc1 | inactive
54 | COCC(C)n1c(-c2ccc3c(c2)NC(=O)CO3)csc1=Nc1ccc(OC(F)F)cc1 (stereo not drawn) | inconclusive [inhibitor, full curve, poor fit]
55 | CC(C)(C)c1ccc(OCCNCc2ccccc2)cc1 | inconclusive [inhibitor, partial curve, poor fit]
56 | Cc1cccc(N(C)S(=O)(=O)c2ccc(-c3cc(C)no3)s2)c1 | active: 1 µM
57 | CCC1CCCCN1S(=O)(=O)c1ccc(C(=O)Nc2nnc(C3=COCCO3)o2)cc1 (stereo not drawn) | inactive
58 | CC[N+](CC)(CC#Cc1ccccc1)CC(=O)c1ccc(Cl)cc1 | inconclusive [inhibitor, single point]
59 | Nc1nn(-c2ccccc2)c(N)c1N=Nc1ccccc1 | inconclusive [inhibitor, partial curve]
60 | Cc1ccc(S(=O)(=O)N2CCc3cc(C(=O)N(C)Cc4ccccc4)ccc32)cc1 | inconclusive [inhibitor, single point]
61 | CCc1sc(Nc2cccc(C)c2)nc1-c1cc2cccc(OC)c2oc1=O | inconclusive [inhibitor, single point]
62 | CCOC(=O)N1CCN(c2nnc(-c3ccc(C)cc3)c3ccccc23)CC1 | inconclusive [inhibitor, partial curve, poor fit]
63 | O=C1C2C(c3ccccc3)(C(=O)N1c1ccc(Cl)cc1)C2(c1ccccc1)c1ccccc1 (stereo not drawn) | inconclusive [inhibitor, full curve, poor fit]

Reference: PubChem BioAssay AID624417 (National Center for Advancing Translational Sciences (NCATS), 2012)
